From the RNAGym collection of RNA variant scans (doi:10.1093/nar/gkz1192)
Read counts are not given, so values of variants with three or more changes are uncertain.

B1: CPEB3 Ribozyme (parent)
chain: UAACAGGGGGCCACAGCAGAAGCGUUCACGUCGCAGCCCCUGUCAGAUUCUGGUGAAUCUGCGAAUUCUGCUGUAUAUCUC

Variants of: B1
Test: self-cleavage, relative activity (ratio to wild type); higher = more cleavage; in vitro, sequencing
Method in brief: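 Barcoded CPEB3 ribozyme mutants, produced by rounds of error-prone PCR, self-cleaved while being transcribed with T7 RNA polymerase for 5 hours at 37°C and during a subsequent 15 min DNase I step before EDTA was added. Sequencing of template-switched cDNA on Illumina gave cleaved and total reads, and DNA sequencing assigned barcodes to variants. Each variant's relative activity is its cleaved/total read fraction divided by the unmutated ribozyme's fraction, averaged across three batches. A variant needed a minimum of 5 reads.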
Work on AAACGGGGGGCCACAGCAGAAGCUUUCACGUCGCAGCCCCUGUCAGAUUCUGGUGAAUCUGCGAGUUCCGCUGUAUAUCUC [U1A A5G G24U A65G U69C] yielded a self-cleavage of 0.09.
With AGACAGGGGGCCGCAGCAGAAGCGUUCACGUCGCAGCCCUUGUCAGAUUCUGGUGAAUCCGCGAAUUCCGCUGUAUAUCUC [U1A A2G A13G C40U U60C U69C] the self-cleavage was 0.14.
For AAACGGGGGGCCACAGCAGAAGCGUUCACGUCGCAGCCCCUGUCAGAUUCUGGUGAAUCUGCGAAUUCUGCUGUAUAUCCC [U1A A5G U80C], the self-cleavage was 0.86.
Variant AAGCAGGAGGCCACAGCAGAAGCGUUCACGUCGCAGCCCCUGUCAGAUUCUGGUGAAUCUGCGAAUUCUGCUGUAUAUCUC [U1A A3G G8A] has a self-cleavage of 0.26.
AACCAGGGGGCCACAGCAGAAGCGUCCACGUCGCAGCCCCUGUCAGAUUCUGGCGAAUCUGCGAAUUCUGCUGUAUAUCUC [U1A A3C U26C U54C] showed a self-cleavage of 0.87.
Variant AAACGGGGGGCCACAGCAGAAGCGCUCACGUCGCAGCCCCUGUCAGAUUCUGGCGAAUCUGCGAAUUCUGCUGUAUAUCUC [U1A A5G U25C U54C] has a self-cleavage of 0.14.
With ACACAGGGGGCCACAGCAGAAGCGUUCACGUCGCAGCCCCUGUCAGAUUCUGGUGAAUCUGCGAGUUCUGCUGUAUAUCUC [U1A A2C A65G] the self-cleavage was 0.5.
For AAGCAGGGGGCCACAGCAGAAGUGUUCACGUCGCUGCCCCUGUCAGAUUCUGGUGAAUCUGCGAAUUCUGCUGUAAAUCUC [U1A A3G C23U A35U U76A], the self-cleavage was 0.17.
In the case of AGACAGGGGGCCACAGCAGGAGCGUUCACGUCGCAGCCCCUGUCAGAUUCUGGUGAAUCCGCGAAUUCUGCUGUAUAUCUC [U1A A2G A20G U60C], the self-cleavage is reported as 0.11.
AACCAGGGAGCCACAGCGGAAGCGUUCGCGUCGCUGCCCCCGUCAGAUUCUGGUGAAUCUGCGAAUUCUGCUGUAUAUCUC [U1A A3C G9A A18G A28G A35U U41C] showed a self-cleavage of 0.04.
AAACAGGGGGCCGCAGCAGAAGCGUUCACGUCGCAGCCCCUGUCAGAUUCUGGUGAAUCUGCGGAUUCUGCUGUAUAUCUC [U1A A13G A64G] gave a self-cleavage of 0.75.
Variant AAGCAGGGGGCCACAGCAGAAGCGUUCUCGUCGCAGCCCCUGUCAGAUUCAGGUGAGUCUGCGAAUUCUGCUGUGUAUCUC [U1A A3G A28U U51A A57G A75G] has a self-cleavage of 0.38.
AACCAGGGGGCCACAGCGGAAGCGUUCACGUCGCAGCCCCUGUCAGAUUCUGGUGAAUCUGCGAAUUCUGCUGUAUAUCUC [U1A A3C A18G] gave a self-cleavage of 0.83.
Work on AAACAGGGGGCCGCAGCAGGAGCGUUCACGUCGCAGCCCCUGUCAGAUUCUGGUGAAUCCGCGAGUUCUGCUGUAUACCUC [U1A A13G A20G U60C A65G U78C] yielded a self-cleavage of 0.17.
For AGACAGGGGGCCACAGCAGAAGCGUUCACGUCGCAGCCCCUGUCAGAUCCUGGUGAAUCUGCGAAUUCUGCUGUAUAUCUC [U1A A2G U49C], the self-cleavage was 0.25.
Work on AAACAGGGGGCCGCAGCAGAAGCGUUCACGUCGCAGCCCCGGUCAGAUUCCGGUGAAUCUGCGAAUUCUGCUGUAUAUCUC [U1A A13G U41G U51C] yielded a self-cleavage of 0.32.
Work on AGACAGGGGGCCACAGCUGAAGCGUUCACGUCGCAGCCCCUGUCAGAUUCUGGUGAACCUGCGAAUUCUGCUGUAUAUCUC [U1A A2G A18U U58C] yielded a self-cleavage of 0.22.
In the case of AAGCAGGGGGCCACAGCAGAAGCGUUCACGUCGCAGCCCCUGUCAGAUUCUGGUGAAUCUGCAUAUUCUGCUGUAUAUCUC [U1A A3G G63A A64U], the self-cleavage is reported as 0.27.
AAACCGGGGGCCACUGCAGAAGCGUUCACGUCGCGGCCCCUGUCAGAUUCUGGUGAAUCUGCAAAUCCUGCUGAAUAUCUC [U1A A5C A15U A35G G63A U67C U74A] showed a self-cleavage of 0.47.
AAGCAGGGGGCCACAGCAGAAGCGUUCACGUCGCAGCCCCAGUCAGAUUCUGGUGAAUCUGCGAAUUCCGAUGUAUAACUC [U1A A3G U41A U69C C71A U78A] gave a self-cleavage of 0.26.
Variant AAACUGGGGGCCACAGCAAAAGCGUUCACGUUGCAGCCCCUGUCAGAUUCUGGUGAAUCUGCGAAUUCUGCUGUAUAUCUC [U1A A5U G19A C32U] has a self-cleavage of 0.15.
AGACAGGGGGCCACAGCAGAAGCGUUCACGCCGCAGCCCCUGUCAGAUUCUGGUGAAUCUGCGAAUUCUGCUGUAUAUCUC [U1A A2G U31C] gave a self-cleavage of 0.85.
Variant AGGCGGGGGGCCUCAGCAGACGCGUUCACGUCGCAGCUCCUGUCAGAUUCUGGUGAAUCUGCGAAUUCUGCUGUAUAUCUC [U1A A2G A3G A5G A13U A21C C38U] has a self-cleavage of 0.22.
For AAACGGGGGGCCACAGCAGAAGCGUUCACGUCGCAGCCCCUGUCAGACUCUGGUGAAUCUGCGAAUUCUGCUGUAUAUCUC [U1A A5G U48C], the self-cleavage was 0.13.
For AAACGGGGGGUCACUGCAGAAGCGUUCACGUCGCAGCCCCUGUCAGAUUCAGGUGAAUCUGCGAAUUCUGCUGUAUAUCUC [U1A A5G C11U A15U U51A], the self-cleavage was 0.15.
AGACAGGGGGCCACAGCUGAAGCGUUCACGUCGCAGCCCCUGUCAGAUACUGGUGAAUCUGCGAAUUCUGCUGUAUAUCUC [U1A A2G A18U U49A] showed a self-cleavage of 0.22.
Work on AAACUGGGGGCCACAGCAGAAGCGUCCACGUCGCAGCCCCUGUCAGAUUCUGGAGGAUCUGCGAAUUCUGCUGUAUAUCUC [U1A A5U U26C U54A A56G] yielded a self-cleavage of 0.36.
AGACAUGAGGCCACAGCAGAAGCGUUCACGUCGCAGCCCCUGUCAGACUCUGGUGGAUCUGCGAAUUCUGCUGUAUACCUC [U1A A2G G6U G8A U48C A56G U78C] gave a self-cleavage of 0.05.
AAACGGGGGGCCACAUCAGAAGCGCUCACGUUGCGCCCCCUGUCAGAUUCUGGUGAAUCUGCGAAUUCUGCUGUAUAUCUC [U1A A5G G16U U25C C32U A35G G36C] gave a self-cleavage of 0.09.
In the case of AAACGGGGGGCCACUGCAGAGGCGUUCACGUCGCAGUCCCUGUCAGAUUCUGGUGAAACUGCGGAUUCUGCUGUAUAUCUC [U1A A5G A15U A21G C37U U58A A64G], the self-cleavage is reported as 0.06.
Variant AAGCAGGGGGCCACAUCAGAAGCGUUCGCGUCGCAGCCCCUGUCAGAUUCUGGUGAAUCUGCGAAUUCUGCUGUAUAUCUC [U1A A3G G16U A28G] has a self-cleavage of 0.76.
With AAACAGGGGGCCGCAGCAGAUGCGAUCACGUCGCAGCCCCUGUCAAAUUCUGGUGAAUCUGCGGAUUCUGCUGUAUAUCUC [U1A A13G A21U U25A G46A A64G] the self-cleavage was 0.07.
Variant AACCAGGGGGCCACAGCAGAAGCGACCACGUCGCAGCCCCUGUCAGAUUCUGGUGAAUCUGCGAACUCUGCUGUAUAUCUC [U1A A3C U25A U26C U66C] has a self-cleavage of 0.12.
AAACUGGGGGCCACAGCAGAAGCGUUCACGUCGCAGCCCCUGUCAGAUUCUGGUGAAUCUGCGAAUUCUGCCGUAUAUCUC [U1A A5U U72C] showed a self-cleavage of 1.21.
